Assay results from the supplement of paper PMC4166925.
± gives the standard deviation of the averaged measurements. The full ranking holds about 33,000 sequences; the median of “E-score (dimensionless, -0.5 to 0.5)” is about -0.049, and the highest 2% start at about 0.37. The list shows a part of the results.

Each sequence was assayed on T1, PmTbr T-box DNA-binding domain (GST fusion) (assay: PBM E-score of 8-mer (E-score (dimensionless, -0.5 to 0.5)); Tbr is Tbrain of the sea star Patiria miniata (Pm) or the sea urchin Strongylocentrotus purpuratus (Sp); higher = stronger binding preference; most listed sequences are background and not binding sites). Details: the construct has about 5 more residues each side.
T1 sequence: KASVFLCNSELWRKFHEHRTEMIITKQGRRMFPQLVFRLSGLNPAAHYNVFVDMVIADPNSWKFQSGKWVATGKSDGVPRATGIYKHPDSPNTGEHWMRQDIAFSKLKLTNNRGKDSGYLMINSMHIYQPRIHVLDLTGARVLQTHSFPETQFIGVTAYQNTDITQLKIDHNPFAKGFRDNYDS
How it was run: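 GST-fused Tbr T-box DNA-binding domains (the whole T-box plus about five flanking residues) were expressed in BL21 E. coli at 20 °C and purified by glutathione affinity chromatography. Universal Agilent oligonucleotide arrays were made double-stranded by primer extension, incubated with 200 nM protein in PBS (pH 7.5), then scanned and quantified. Every ungapped 8-mer was scored from probe intensities. The Universal PBM Analysis Suite gave each word an enrichment E-score, averaged over duplicate arrays.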

Sequence | PBM E-score of 8-mer
TATGCTGA | -0.28082 ± 7.1e-05
ACTGCAAA | 0.0952 ± 0.041
ATACCTCG | 0.0114 ± 0.062
CCTATCGC | 0.187 ± 0.02
AAGCGGGC | -0.0761 ± 0.02
AGACGGCA | -0.0772 ± 0.0055
ATGGCGCC | 0.203 ± 0.0063
AATCGCGA | 0.3771 ± 0.0028
CCGATCCG | -0.094 ± 0.017
TATGTCAA | 0.0912 ± 0.063
CCATAAGC | -0.0407 ± 0.022
AAGTCGCA | 0.212 ± 0.027
GGCAAGGA | -0.282 ± 0.0094
CAGCACTG | -0.0103 ± 0.11
AAGAGAGC | -0.208 ± 0.015
CCGGTAAA | -0.185 ± 0.034
ACTCGACC | -0.0345 ± 0.015
ATAGATAA | -0.00945 ± 0.081
CACTGTAG | 0.028 ± 0.029
GCCACAAC | 0.0461 ± 0.015
CCACAGGC | -0.15 ± 0.021
AGAGCGCC | -0.0954 ± 0.008
AGTACCGA | -0.252 ± 0.042
ACGAGCCA | -0.209 ± 0.086
GATTGACC | -0.116 ± 0.056

Sequence | PBM E-score of 8-mer
AGCCATCG | 0.06 ± 0.013
GACTGATC | -0.186 ± 0.015
AAGCCCGC | -0.0747 ± 0.018
AGTCTAAT | -0.0337 ± 0.044
GATTGACA | 0.2436 ± 0.0011
AGGGTCTG | -0.153 ± 0.037
AGACATTC | -0.2 ± 0.025
CCAAAGAA | -0.26 ± 0.0045
CAGACCAG | -0.278 ± 0.029
CCTGTGCA | -0.107 ± 0.012
ATAACTTA | -0.0517 ± 0.069
GAGTTGTA | 0.195 ± 0.049
CCCCGCCG | -0.053 ± 0.093
CGACTGAG | -0.253 ± 0.023
AGTGGAAT | -0.0212 ± 0.05
CATTAACA | 0.313 ± 0.071
CCTAACGC | 0.202 ± 0.033
CATCAGTA | -0.108 ± 0.086
AGCTGAAT | -0.0655 ± 0.049
AACCGAGG | -0.0449 ± 0.022
CGTTCCTC | -0.115 ± 0.035
CACTGTTA | 0.177 ± 0.0082
ACCGCTGC | 0.128 ± 0.0099
CATTGTAA | -0.115 ± 0.1
AACCGCAG | -0.134 ± 0.07

Sequence | PBM E-score of 8-mer
CATCATGA | -0.142 ± 0.079
ACGACTCC | -0.0669 ± 0.11
ACAGCTGC | 0.221 ± 0.0035
ATAACCTG | 0.0231 ± 0.018
ATGATTGA | 0.123 ± 0.065
ACCACACA | 0.21 ± 0.0081
CTGACCTA | -0.194 ± 0.079
GGAGGGCC | -0.274 ± 0.097
ATATGGTC | -0.17 ± 0.0095
CCACGCAC | 0.0735 ± 0.062
CTCGCTTA | 0.0115 ± 0.0016
ATCTGCCA | 0.0208 ± 0.02
AAATTGTT | -0.0609 ± 0.041
TGACAACA | 0.339 ± 0.019
ACTAGGCC | 0.0616 ± 0.0072
AGAGGTGG | 0.316 ± 0.0057
AGTAAAGG | -0.0214 ± 0.051
CACGCGAG | 0.214 ± 0.024
GAGCAGAC | 0.012 ± 0.017
CACATGCC | 0.124 ± 0.0096
CTTGGGGA | -0.196 ± 0.039
ACTCGCAT | -0.0149 ± 0.006
CCGTAAGG | -0.0384 ± 0.0057
GTTAGATA | -0.00025 ± 0.026
GGAACCTA | -0.188 ± 0.0072

Sequence | PBM E-score of 8-mer
ACTGAATG | -0.2555 ± 0.0011
CGCCTACG | 0.0961 ± 0.028
ATGAACGA | -0.242 ± 0.07
TGACCAAA | -0.0968 ± 0.0068
AATAATCT | -0.27 ± 0.02
ATTAGGCG | 0.0226 ± 0.033
ATGACATC | -0.203 ± 0.053
CCCTAGGG | -0.16 ± 0.025
CACCTCAA | 0.395 ± 0.022
CTTGCCAA | 0.237 ± 0.054
TTCAGGAA | -0.129 ± 0.021
AAAGACCA | -0.114 ± 0.043
GGTGACGA | 0.429 ± 0.013
CAGCTCCC | -0.1055 ± 0.00083
GAACCTCC | -0.127 ± 0.068
ATTAAACA | 0.0958 ± 0.041
AATATCTA | -0.236 ± 0.055
CATCGATA | 0.0386 ± 0.0093
CGCCGACG | 0.0764 ± 0.03
ACACCCCC | 0.379 ± 0.017
GGCGCCAC | 0.3288 ± 0.0022
CAGCTTCC | -0.237 ± 0.013
GTGGGAAC | 0.239 ± 0.009
AAAGTAAG | -0.0117 ± 0.0073
CATCGGGC | -0.0604 ± 0.041

Sequence | PBM E-score of 8-mer
TGGATACA | -0.223 ± 0.037
GCCAGCAA | -0.149 ± 0.1
CCCGTTGA | 0.021 ± 0.11
GGCGGACC | -0.0519 ± 0.055
CTAAACAC | 0.146 ± 0.053
ACGACTAA | -0.139 ± 0.0045
CACCTCAG | 0.42 ± 0.0057
CAAGGCCA | -0.163 ± 0.013
CGTGAGGC | 0.0784 ± 0.018
AGGGATCG | 0.148 ± 0.033
ACCGCCCT | -0.289 ± 0.011
CAGATTGC | -0.0534 ± 0.016
GGCGGGAA | 0.152 ± 0.011
ACGACTAT | -0.13 ± 0.011
CTCATCCC | -0.165 ± 0.079
ATTTAGTC | -0.0274 ± 0.052
GCCAACTA | 0.147 ± 0.034
CGAAAAGC | 0.155 ± 0.025
CCCGTGTC | 0.0466 ± 0.02
CAGAGGAA | -0.0607 ± 0.042
CCATTCGC | 0.226 ± 0.0074
TGTCGTAA | 0.144 ± 0.0038
TCCAAGCA | -0.0365 ± 0.015
CACGGTCG | 0.0491 ± 0.014
TCTAGGCA | -0.0224 ± 0.0097

Sequence | PBM E-score of 8-mer
CTGTCTAA | -0.0724 ± 0.019
GATTCCGC | -0.0571 ± 0.061
ATCGTAAC | -0.000505 ± 0.017
ACGGTGGG | -0.211 ± 0.015
CGGTACCG | -0.0712 ± 0.02
GGCTTTTA | -0.0878 ± 0.01
CGCGAGGA | 0.168 ± 0.052
ACTTGTAA | 0.0472 ± 0.082
AAATAAGC | -0.0171 ± 0.064
GCTGGTCC | -0.237 ± 0.01
AATATGTC | 0.00194 ± 0.044
GATCCAGC | -0.0993 ± 0.012
ATTCTGGC | -0.0401 ± 0.049
AAAGAAAC | -0.173 ± 0.081
AAAAATCC | -0.12 ± 0.019
ATGAGCAC | -0.247 ± 0.061
ACGTGAAG | 0.146 ± 0.054
CAGCGAGA | 0.0222 ± 0.014
CCACGTAC | 0.0376 ± 0.016
AGCTATAA | -0.182 ± 0.011
CGGGGAAG | -0.145 ± 0.087
ATCGTTCA | -0.357 ± 0.005
AGATATAA | -0.00705 ± 0.037
CTTTTTCA | 0.0925 ± 0.056
CCAAGACC | -0.227 ± 0.013

Sequence | PBM E-score of 8-mer
CTAAAGAC | -0.178 ± 0.0032
CCCTAAGA | -0.208 ± 0.015
ACTGATTG | -0.106 ± 0.052
AACCTATT | -0.172 ± 0.056
AGGGAACG | 0.0301 ± 0.15
TCAGTGAA | -0.0398 ± 0.015
ACCTGGCG | 0.251 ± 0.049
ATCCACCC | 0.0355 ± 0.035
CCATGATC | -0.0602 ± 0.011
CAACTGCC | 0.164 ± 0.019
GGCCTAAC | -0.051 ± 0.039
GCTAGGGA | 0.0212 ± 0.031
CGTTTGGA | -0.0261 ± 0.0032
CTTTGGCC | -0.27 ± 0.068
TAACCGGA | -0.0209 ± 0.062
CACTACAC | 0.169 ± 0.044
AAGCTGCG | 0.107 ± 0.0034
CGGGCATA | -0.213 ± 0.2
AATGAGAC | 0.0183 ± 0.0044
TCAACCAA | -0.0965 ± 0.0019
GTGGTTCA | -0.0776 ± 0.029
ACCTTGAT | 0.0787 ± 0.059
